Experimental data published in PubChem BioAssay (NCATS).
Where “and” joins values, the source holds several entries; their conditions need not be identical. Equal values may be shown once. Inconclusive means that the source gave no clear call. Such entries were picked first, then a sample of the others. Where the call is inconclusive, the potency comes from a doubtful curve fit. Calls of active or inactive are those of the source. The call rests on the fitted dose curve; in most records, active means well fitted curve in the direction sought with a large enough effect; inconclusive means small, poorly fitted or top-dose-only effect, or another doubt; inactive means no such curve, though single readings can be large; an effect the other way counts as inactive or inconclusive.

Test: qHTS Assay for Identifying Gametocytocidal Compounds (AID 743244);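 on max response: on the % scale 0 is the no-effect control and ±100 the full control effect; actives lower the fluorescent signal which means gametocytes are killed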
Conditions: P. falciparum 3D7 stage III-V gametocytes, alamarBlue, 72 h; max response: active compounds read low
Summary of the method: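 Viability read-out was resazurin reduction (alamarBlue, 24 h) measured at Ex 525/Em 598 nm. Beforehand, late-stage (III-V) 3D7 P. falciparum gametocytes at 20,000 cells/well were incubated with compound 72 h at 37C under 5% CO2.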
Potency means the concentration at half of the fitted maximal effect; tags describe the fitted curve by direction and shape.

Compound | Potency | max response
Cc1cccc(Nc2nc(N[C@@H]3CCCC[C@H]3N)ncc2C(N)=O)c1 | active: 9.35 µM | –
CN1CCN2c3ccccc3Cc3ccccc3C2C1 (stereo not given) | inconclusive: 28.2 µM [inhibitor, single point] | inactive: 25.6%
C=CC(=O)Nc1cc2c(Nc3ccc(F)c(Cl)c3)ncnc2cc1OCCCN1CCOCC1 | inconclusive: 74.3 µM [inhibitor, single point] and inconclusive: 35.5 µM [inhibitor, single point] | –
Clc1ccc(COC(Cn2ccnc2)c2ccc(Cl)cc2Cl)c(Cl)c1 (stereo not given) | active: 4.48 µM | –
N#CC[C@H](C1CCCC1)n1cc(-c2ncnc3[nH]ccc23)cn1 | – | inactive: 2.34%
CCN(CC)CCOc1ccc(Cc2ccccc2)cc1 | inconclusive: 35.5 µM [inhibitor, single point] | –

Test: qHTS Screen of the MIPE 4.0 Collection Against Ewings Sarcoma (TC71) (AID 1259253); further: nearly all actives have a fitted effect of over 40% in size;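 on viability (% of DMSO): 100% = DMSO-treated cells and 0% = medium-only wells without cells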
Conditions: TC71 Ewing sarcoma viability, CellTiter-Glo, 48 h; series mostly up to 45.8 µM; viability (% of DMSO): at the top concentration
Summary of the method: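 Viability screen: 48 h incubation at 37C, 95% humidity, 5% CO2 with serially titrated compound, followed by CellTiter-Glo readout.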

Compound | Potency | viability (% of DMSO)
O=C(O)c1ccc(O)c2ncc(N3CCOCC3)cc12 | inconclusive: 20.9 µM [inhibitor, partial curve] | –
O=C(NOC[C@H](O)CO)c1ccc(F)c(F)c1Nc1ccc(I)cc1F | inconclusive: 37.2 µM [inhibitor, single point] | –
COc1c(Cl)cc2c([nH]c3cnccc32)c1NC(=O)c1cccnc1C | inconclusive: 4.18 µM [inhibitor, partial curve, poor fit] | –
CCCCN1CCC(CNC(=O)c2c3n(c4ccccc24)CCCO3)CC1 | active: 9.35 µM | –
C[C@]12CC[C@@H]3c4ccc(O)cc4CC[C@H]3[C@H]1[C@@H](O)[C@@H](O)[C@H]2O | inconclusive: 4.69 µM [inhibitor, partial curve, poor fit] | –
CCCCN(CCCC)CC(O)c1cc(Cl)cc2c1-c1ccc(Cl)cc1C2=Cc1ccc(Cl)cc1 (stereo not given) | inconclusive: 26.4 µM [inhibitor, single point] | –
Cc1cccc(Nc2nc(N[C@@H]3CCCC[C@H]3N)ncc2C(N)=O)c1 | active: 18.7 µM | –
CN(C)C(=O)c1ccc(S(=O)(=O)c2ccc(NC(=O)[C@@](C)(O)C(F)(F)F)c(Cl)c2)cc1 | active: 18.7 µM | –
NC(=NCc1ccccc1)NC(=O)c1nc(Cl)c(N)nc1N | inconclusive: 33.2 µM [inhibitor, single point] | –
CN(C(=O)c1ccc(F)cc1C(F)(F)F)C1CCN(c2nnc(-c3ccnn3C)c3ccccc23)CC1 | inconclusive: 20.9 µM [inhibitor, partial curve] | –
C[C@@H](NCc1cc2ccccc2[nH]1)c1cccc2ccccc12 | – | inactive: 116%
C[C@H](c1ccc(F)cc1CCCC(=O)O)N(c1cc(F)ccc1F)S(=O)(=O)c1ccc(Cl)cc1 | inconclusive: 16.6 µM [inhibitor, partial curve] | –
O=C1CN2Cc3c(ccc(Cl)c3Cl)N=C2N1 | inconclusive: 20.9 µM [inhibitor, partial curve] | –
COc1ccc(CCN2CCN(CCCc3ccccc3)CC2)cc1OC | inconclusive: 14.8 µM [inhibitor, partial curve, poor fit] | –
CC(=O)N1CCN(c2ccc(OC[C@H]3CO[C@](Cn4ccnc4)(c4ccc(Cl)cc4Cl)O3)cc2)CC1 | inconclusive: 20.9 µM [inhibitor, partial curve] | –
CCCCCCCCCCCCCCCC(=O)O[C@H]1[C@@H](O)[C@@H](O)[C@@H]([C@H](NC(=O)[C@@H]2C[C@@H](CCC)CN2C)[C@H](C)Cl)O[C@@H]1SC | active: 13.2 µM | –
CCCCOCCOc1nc(-c2ccc(C(=O)O)c(F)c2)sc1C | inconclusive: 23.5 µM [inhibitor, single point] | –
OC[C@H]1O[C@@H](OCCc2ccc(O)cc2)[C@H](O)[C@@H](O)[C@H]1O | inconclusive: 23.5 µM [inhibitor, single point] | –
C[C@H](O)[C@@H]1C(=O)N2C(C(=O)O)=C(S[C@@H]3CN[C@H](CNS(N)(=O)=O)C3)[C@@H](C)[C@@H]12 | – | inactive: 123%

Compound | Potency | viability (% of DMSO)
O=C(O)c1cn(C2CC2)c2cc(N3CCNCC3)c(F)cc2c1=O | – | inactive: 138%
Fc1ccc(CNc2ncnc3ccc(F)cc23)cc1 | inconclusive: 14.8 µM [inhibitor, partial curve] | –
CNC[C@@H](O)[C@@H](O)[C@H](O)[C@H](O)CO | – | inactive: 122%
CN1CCN2c3ccccc3Cc3ccccc3C2C1 (stereo not given) | active: 16.6 µM | –
CCc1cccc2c3c([nH]c12)C(CC)(CC(=O)O)OCC3 (stereo not given) | inconclusive: 26.4 µM [inhibitor, partial curve, poor fit] | –
CCCCCCCc1ccc(CCc2cccc(O)c2C(=O)O)cc1 | active: 16.6 µM | –
NC(=O)Nc1cc(-c2cccc(F)c2)sc1C(=O)N[C@H]1CCCNC1 | active: 0.0935 µM | –
COc1ccc(C(C)=O)c(O)c1 | – | inactive: 127%
C=CC(=O)Nc1cc2c(Nc3ccc(F)c(Cl)c3)ncnc2cc1OCCCN1CCOCC1 | active: 14.8 µM | –
c1ccc(CNc2nc(N3CCOc4ccccc43)nc3c2CCCC3)cc1 | inconclusive: 33.2 µM [inhibitor, single point] | –
COc1ccc2c(c1)c(CC(=O)O)c(C)n2C(=O)c1ccc(Cl)cc1 | inconclusive: 26.4 µM [inhibitor, single point] | –
Clc1ccc(COC(Cn2ccnc2)c2ccc(Cl)cc2Cl)c(Cl)c1 (stereo not given) | inconclusive: 23.5 µM [inhibitor, partial curve] | –
CSc1cccc(Nc2ncc3cc(-c4c(Cl)cccc4Cl)c(=O)n(C)c3n2)c1 | inconclusive: 0.105 µM [inhibitor, full curve, poor fit] | –
N#CC[C@H](C1CCCC1)n1cc(-c2ncnc3[nH]ccc23)cn1 | active: 20.9 µM | –
OCCn1cc(-c2ccc3c(c2)CCC3=NO)c(-c2ccncc2)n1 | inconclusive: 37.2 µM [inhibitor, single point] | –
Cc1c(C(=O)Nc2ccc(N3C[C@@H](C)O[C@@H](C)C3)nc2)cccc1-c1ccc(OC(F)(F)F)cc1 | inconclusive: 18.7 µM [inhibitor, partial curve, poor fit] | –
CCN(CC)CCOc1ccc(Cc2ccccc2)cc1 | inconclusive: 29.6 µM [inhibitor, single point] | –
CCCc1nn(C)c2c(=O)[nH]c(-c3cc(S(=O)(=O)N4CCN(C)CC4)ccc3OCC)nc12 | active: 13.2 µM | –
CC1(C)OC2CC3C4CC(F)C5=CC(=O)C=CC5(C)C4C(O)CC3(C)[C@]2(C(=O)CO)O1 (stereo not given in full) | inconclusive: 29.6 µM [inhibitor, single point] | –
